Common to all, as to assay type: cell-based
The test system of assay [1] is human PBMCs (CD4+ and CD8+ T cells). Nature of the assay: Bead-conjugated antibody co-stimulation of CFSE labelled human PBMCs. How it is done: Agonist activity of MABs could also be seen on primary T cells that express endogenous levels of GITR via proliferation and cytokine secretion from primary T cells. MABs were conjugated on to M-280 Tosylactivated beads (Invitrogen #142.04) following the manufacturer's instructions. In some experiments agonist CD3 (OKT3) and CD28 (CD28.2) antibodies were also conjugated to beads. 1×10^5 freshly purified CFSE-labelled human PBMCs were plated in 10 uL of CTL Test media (CTL #CTLW-010) into a 96 well round bottomed tissue culture plate. 100 uL of MAB conjugated beads was then added at a ratio of 1 T cell: 1 beads. Plates were then incubated for 3 days in a 37° C. tissue culture incubator. Levels of secreted cytokines in the media were measured using a MSD multiplex assay according to manufacturer's instructions. Cells were stained with anti-CD4, -CD8a, -CD25, -GITR antibodies and a LIVE/DEAD stain after staining cells were fixed and read on the flow cytometer. Proliferation of each CD4 and CD8 cells was assessed by CFSE staining and counting beads were added prior to the FACS read to allow normalization of the samples.

Assay [2] concerns hGITR on mouse CD8+ T cells. The experiment in a line: In vitro splenocyte assay, hGITR-hGITRL knock-in mice. How it is done:
In vitro splenocyte assays were carried out using spleens isolated from mice. Briefly, spleens from mice were dissociated by automated homogenization in 5 mL AutoMACS Rinsing Solution (Miltenyi Biotech 130-091-222) containing 5% BSA (Miltenyi Biotech 130-091-376) using gentleMACS C tubes (Miltenyi Biotech 130-096-334) on a gentleMACS Octo Dissociator (Miltenyi Biotech 130-095-937). Homogenates were strained through a 0.70 uM pore size cell strainer (Fisher Scientific 22363548) and washed with 10 mL AutoMACS buffer. Splenocytes were resuspended and plated at 100,000 cells/well in RPMI (HyClone SH30027.02)+10% human serum (Cellgro 35-060.C1)+1× Pen/Strep/L-Glut (Gibco 15 140-112) in a 96-well tissue culture plate (Costar 3799). […] After 48 hours, cells were either analyzed immediately or pulsed with control or therapeutic antibody for 30 minutes to 96 hours, stained with fluorophore-conjugated antibodies and analyzed by flow cytometry.
Flow cytometry: For surface markers, cells were stained with anti-CD19 (BD Biosciences 562291), anti-CD8 (Biolegend 100725), anti-CD4 (eBioscience 25-0041), anti-CD69 (BD Biosciences 561238), anti-hGITR (Miltenyi Biotech 130-092-895) and anti-hIgG (Life Sciences A-10631) antibodies for 30 minutes at 4C. […] Cells were read on a BD LSRFortessa cytometer using BD FACSDiva software (BD Biosciences) and flow data was analyzed using FlowJo software (TreeStar Inc.).

Assay [3] has as its target T1, hGITR (Homo sapiens, UniProt Q9Y5U5).
T1 sequence (Q9Y5U5 26-241): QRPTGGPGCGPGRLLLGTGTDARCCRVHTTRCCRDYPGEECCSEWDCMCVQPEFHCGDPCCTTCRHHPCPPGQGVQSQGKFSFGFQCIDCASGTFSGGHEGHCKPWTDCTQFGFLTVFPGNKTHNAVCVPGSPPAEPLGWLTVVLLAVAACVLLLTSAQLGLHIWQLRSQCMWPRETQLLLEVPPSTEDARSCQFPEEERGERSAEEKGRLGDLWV
Nature of the assay: NFκB-Luciferase reporter gene assay, 293 cells with human GITR. Details: expressed in transfected cells; host or cells: HEK-293 (293) cells. To be noted: antibodies crosslinked. Here is the method:
To generate the 293-hGITR-NFκB reporter gene cells line, 293 cells were stably transfected with an NFκB-Luciferase reporter gene and human GITR (or cyno GITR). Activation of the GITR signaling pathway in these cells was determined by measuring the levels of luciferase induced within the cells after a 24 hour incubation with GITR-L or agonistic antibody. To assess the effects of cross-linking Abs, they were incubated with an excess of a F(ab′)2 goat anti-human Fcγ fragment specific antibody or protein A before using in the reporter gene assay.
Functional activity of MABs were tested in an NFkB reporter gene assay for agonist activity. MAB was diluted to 6 μg/mL in PBS and incubated for 30 minutes at room temperature in the presence/absence of a 3 fold excess of F(ab′)2 fragment goat anti-human Fcγ specific crosslinker. Alternatively, MAB was diluted to 6 μg/mL in PBS and incubated for 30 minutes at room temperature in the presence/absence of a 2 fold excess of Protein A. 10 μL of incubated MAB was then added to a 384 well white clear bottomed assay plate. A HEK-293 cell line stably transfected with hGITR and a NFκB reporter gene was diluted to 5×10^5 cells/mL and 20 μL of the cell suspension was added to each well. The plate was incubated for 24 hours in a 37° C. tissue culture incubator. 30 μL of Cell Bright Glo was added to each well and the plate was read for luminescence on the Acquest.
A general note: Reporter assays use an easily measured gene product as a stand-in for the process of interest.

Setting [4] is: beads with anti-CD3, anti-CD28 and MAB, compared to isotype control antibody.

B1: MAB7: MAB4 variant with glycation site KH changed to RH; heavy chain SEQ ID NO:100, light chain SEQ ID NO:66 (antibody)
heavy: EVQLVESGGGLVQSGGSLRLSCAASGFSLSSYGVDWVRQAPGKGLEWVGVIWGGGGTYYASSLMGRFTISRDNSKNTLYLQMNSLRAEDTAVYYCARHAYGHDGGFAMDYWGQGTLVTVSSASTKGPSVFPLAPSSKSTSGGTAALGCLVKDYFPEPVTVSWNSGALTSGVHTFPAVLQSSGLYSLSSVVTVPSSSLGTQTYICNVNHKPSNTKVDKRV[human IgG1 Fc not printed]
light: EIVMTQSPATLSVSPGERATLSCRASESVSSNVAWYQQRPGQAPRLLIYGASNRATGIPARFSGSGSGTDFTLTISRLEPEDFAVYYCGQSYSYPFTFGQGTKLEIKRTVAAPSVFIFPPSDEQLKSGTASVVCLLNNFYPREAKVQWKVDNALQSGNSQESVTEQDSKDSTYSLSSTLTLSKADYEKHKVYACEVTHQGLSSPVTKSFNRGEC
For the molecule B1, the “secretion of cytokines (IFNγ, TNFα, IL-10, IL-13)” value in assay [1] (beads with anti-CD3, anti-CD28 and MAB) was “an increase in the secretion of several cytokines”. Besides, in assay [1] (setting [4]), the “proliferation of CD4+ T cells” value is “induces an increase in proliferation” and the “proliferation of CD8+ T cells” value is listed as “induces an increase in proliferation”. In addition, the “dependence of proliferation and IFNγ production on anti-CD3 and anti-CD28 co-stimulation” value in assay [1] (co-stimulatory antibodies omitted: no agonist effects) is “dependent upon the presence of anti-CD3 and anti-CD28 agonistic antibodies”. Besides, the “binding to hGITR expressed on CD8+ cells” value in assay [2] (splenocytes stimulated with a-CD3 and a-CD28) was “effectively binds hGITR expressed on CD8+ cells”. Further, the “T cell activation (pIKK staining, CD25+)” value in assay [2] (stimulated T cells) was “correlates with increased Tcell activation”. In addition, in assay [3], the “NFκB activity / intracellular signaling” value is given as “induce NFκB activity when crosslinked, at levels similar to GITR ligand”.

Values taken from patent US20170306038A1, “COMPOSITIONS AND METHODS OF USE FOR AUGMENTED IMMUNE RESPONSE AND CANCER THERAPY” (priority 2014, published 2017).
